{
  "source": "paper PMC9911399",
  "about": "“Two distinct binding modes provide the RNA-binding protein RbFox with extraordinary sequence specificity”",
  "binders": {"B1": {"name": "GAUUGAA (DNA:RNA)", "RNA": "GGGAGACCGGAAUUCAGAUUGUCCGAUUGAAUUAAAUCCCGUCGUAGCCACCA", "DNA 1": "CAATCTGAATTCCGGTCTCCC", "DNA 2": "TGGTGGCTACGACGGGATT"}, "B2": {"name": "CUCACUC (DNA:RNA)", "RNA": "GGGAGACCGGAAUUCAGAUUGUCCCUCACUCUUAAAUCCCGUCGUAGCCACCA", "DNA 1": "CAATCTGAATTCCGGTCTCCC", "DNA 2": "TGGTGGCTACGACGGGATT"}, "B3": {"name": "AACGUCU (DNA:RNA)", "RNA": "B2 RNA with C25A, U26A, A28G, C29U, U30C, C31U", "DNA 1": "CAATCTGAATTCCGGTCTCCC", "DNA 2": "TGGTGGCTACGACGGGATT"}, "B4": {"name": "AAGAUGG (DNA:RNA)", "RNA": "B2 RNA with C25A, U26A, C27G, C29U, U30G, C31G", "DNA 1": "CAATCTGAATTCCGGTCTCCC", "DNA 2": "TGGTGGCTACGACGGGATT"}, "B5": {"name": "GUGUAUU (DNA:RNA)", "RNA": "B2 RNA with C25G, C27G, A28U, C29A, C31U", "DNA 1": "CAATCTGAATTCCGGTCTCCC", "DNA 2": "TGGTGGCTACGACGGGATT"}, "B6": {"name": "GCCAUUA (DNA:RNA)", "RNA": "B2 RNA with C25G, U26C, C29U, C31A", "DNA 1": "CAATCTGAATTCCGGTCTCCC", "DNA 2": "TGGTGGCTACGACGGGATT"}, "B7": {"name": "AGGAGCU (DNA:RNA)", "RNA": "B2 RNA with C25A, U26G, C27G, C29G, U30C, C31U", "DNA 1": "CAATCTGAATTCCGGTCTCCC", "DNA 2": "TGGTGGCTACGACGGGATT"}, "B8": {"name": "ACGCAGG (DNA:RNA)", "RNA": "GGGAGACCGGAAUUCAGAUUGUCCACGCAGGUUAAAUCCCGUCGUAGCCACCA", "DNA 1": "CAATCTGAATTCCGGTCTCCC", "DNA 2": "TGGTGGCTACGACGGGATT"}, "B9": {"name": "UAUGACA (DNA:RNA)", "RNA": "B1 RNA with G25U, U28G, G29A, A30C", "DNA 1": "CAATCTGAATTCCGGTCTCCC", "DNA 2": "TGGTGGCTACGACGGGATT"}},
  "note": "Numbering of substitutions follows the chain as printed; changes in the protein carry UniProt numbers. The list shows a part of the results.",
  "data": [
    {"target": "T1, RBFOX1 RRM RbFoxmut (Fox-RRM*) (Homo sapiens, UniProt Q9NWB1 109-208, R118D;E147R;N151S;E152T)", "T1 sequence": "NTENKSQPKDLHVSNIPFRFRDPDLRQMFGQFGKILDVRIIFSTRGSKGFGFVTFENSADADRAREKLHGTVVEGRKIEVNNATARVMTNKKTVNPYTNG", "test": "EMSA; HiTS-Eq, 1 nM pool, 10 min; buffer printed only for the single-RNA assays: 10 mM Tris pH 7.5, 150 mM NaCl, 3.4 mM EDTA, 0.001% NP-40, 30 C", "details": "tags: His6 N-terminal (pET28a); label: 5' 32P", "method_in_brief": "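Purified RbFox RRM (wild type or mutant) was equilibrated for 10 min in 50 µL with 1 nM of a 5′-radiolabelled pool of RNA with 7 randomized nucleotides, its flanks annealed to DNA oligonucleotides, across increasing protein concentrations. Free RNA was separated by 8% native PAGE, excised, reverse-transcribed, PCR-barcoded and sequenced on an Illumina HiSeq 2500. Relative association constants came from read-count changes of each variant against the control reaction, normalised to the cognate motif.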", "values": [
      {"binder": "B1", "binding signal": "0.154 KA relative to UGCAUGU"},
      {"binder": "B2", "binding signal": "0.0504 KA relative to UGCAUGU"},
      {"binder": "B3", "binding signal": "0.0416 KA relative to UGCAUGU"},
      {"binder": "B4", "binding signal": "0.0985 KA relative to UGCAUGU"},
      {"binder": "B5", "binding signal": "0.141 KA relative to UGCAUGU"},
      {"binder": "B6", "binding signal": "0.0922 KA relative to UGCAUGU"},
      {"binder": "B7", "binding signal": "0.108 KA relative to UGCAUGU"},
      {"binder": "B8", "binding signal": "0.115 KA relative to UGCAUGU"},
      {"binder": "B9", "binding signal": "0.063 KA relative to UGCAUGU"}
    ]}
  ]
}
